Measurements as given in paper PMC5605756.
No constants are given. Whether binding was seen depends on the method and setting. In cells and extracts the contact can be indirect. Some binding calls cover weakened binding; strength is not graded here. For some assays here: Tags and fused reporters may be left off the sequences shown.

Sequences of proteins named here, by UniProt entry; tags and fusion partners are left off. A change or cut given only in a name is not applied to a line headed by its entry. A line that says so, or that is headed by a name, gives the form on record, which may keep a tag or linker. Residues count along the entry.
UniProt Q00175: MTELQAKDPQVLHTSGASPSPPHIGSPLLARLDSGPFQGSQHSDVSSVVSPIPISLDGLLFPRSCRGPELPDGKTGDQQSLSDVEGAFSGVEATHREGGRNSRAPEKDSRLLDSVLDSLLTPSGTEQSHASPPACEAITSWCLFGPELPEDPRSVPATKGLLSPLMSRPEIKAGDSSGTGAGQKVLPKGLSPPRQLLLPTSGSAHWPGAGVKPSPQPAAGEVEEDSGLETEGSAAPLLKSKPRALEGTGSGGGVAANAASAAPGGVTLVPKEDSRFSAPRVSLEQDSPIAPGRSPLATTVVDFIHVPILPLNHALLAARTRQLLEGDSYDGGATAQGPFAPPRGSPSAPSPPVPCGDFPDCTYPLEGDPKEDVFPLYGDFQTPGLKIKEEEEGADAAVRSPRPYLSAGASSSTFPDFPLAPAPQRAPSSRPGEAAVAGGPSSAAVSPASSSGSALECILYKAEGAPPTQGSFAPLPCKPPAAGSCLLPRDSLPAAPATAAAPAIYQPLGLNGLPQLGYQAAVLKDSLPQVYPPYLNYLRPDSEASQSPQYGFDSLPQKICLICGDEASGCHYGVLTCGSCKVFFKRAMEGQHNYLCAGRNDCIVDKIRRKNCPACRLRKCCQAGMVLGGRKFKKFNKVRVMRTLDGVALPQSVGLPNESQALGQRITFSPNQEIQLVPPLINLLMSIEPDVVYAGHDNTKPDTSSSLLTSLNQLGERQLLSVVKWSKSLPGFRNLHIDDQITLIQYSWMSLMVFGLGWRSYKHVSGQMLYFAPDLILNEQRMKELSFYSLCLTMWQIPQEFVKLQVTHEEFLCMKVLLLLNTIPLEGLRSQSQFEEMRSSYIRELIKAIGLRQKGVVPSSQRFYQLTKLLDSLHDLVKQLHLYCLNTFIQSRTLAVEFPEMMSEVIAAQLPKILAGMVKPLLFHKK
UniProt P11688, residues 45-1053: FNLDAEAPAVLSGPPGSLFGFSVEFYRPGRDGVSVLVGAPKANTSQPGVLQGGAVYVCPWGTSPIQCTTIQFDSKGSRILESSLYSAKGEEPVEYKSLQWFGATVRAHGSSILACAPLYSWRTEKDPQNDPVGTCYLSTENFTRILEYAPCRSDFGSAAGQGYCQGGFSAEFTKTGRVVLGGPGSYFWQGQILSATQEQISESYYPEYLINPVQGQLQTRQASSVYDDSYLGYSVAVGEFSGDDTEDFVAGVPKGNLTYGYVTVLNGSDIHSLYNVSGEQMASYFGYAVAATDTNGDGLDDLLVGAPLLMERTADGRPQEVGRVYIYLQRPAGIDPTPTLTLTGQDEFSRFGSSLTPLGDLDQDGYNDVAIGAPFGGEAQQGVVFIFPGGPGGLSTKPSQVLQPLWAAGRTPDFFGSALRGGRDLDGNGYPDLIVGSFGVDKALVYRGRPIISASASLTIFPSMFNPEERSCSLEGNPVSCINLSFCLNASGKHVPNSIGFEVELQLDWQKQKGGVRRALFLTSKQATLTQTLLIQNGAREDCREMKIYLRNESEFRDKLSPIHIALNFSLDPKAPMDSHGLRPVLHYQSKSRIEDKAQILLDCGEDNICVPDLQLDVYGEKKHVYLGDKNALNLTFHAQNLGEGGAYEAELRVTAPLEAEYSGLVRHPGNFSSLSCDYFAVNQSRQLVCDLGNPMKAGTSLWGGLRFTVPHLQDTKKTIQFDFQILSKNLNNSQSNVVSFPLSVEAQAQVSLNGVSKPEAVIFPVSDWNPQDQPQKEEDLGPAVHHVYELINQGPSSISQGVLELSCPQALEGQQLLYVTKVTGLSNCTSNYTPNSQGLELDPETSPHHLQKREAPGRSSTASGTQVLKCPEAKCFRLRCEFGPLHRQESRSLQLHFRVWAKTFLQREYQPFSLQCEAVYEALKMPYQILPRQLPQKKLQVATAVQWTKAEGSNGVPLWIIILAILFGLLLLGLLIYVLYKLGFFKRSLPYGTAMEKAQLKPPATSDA
synapsin-IIb (Q64332-2, form named): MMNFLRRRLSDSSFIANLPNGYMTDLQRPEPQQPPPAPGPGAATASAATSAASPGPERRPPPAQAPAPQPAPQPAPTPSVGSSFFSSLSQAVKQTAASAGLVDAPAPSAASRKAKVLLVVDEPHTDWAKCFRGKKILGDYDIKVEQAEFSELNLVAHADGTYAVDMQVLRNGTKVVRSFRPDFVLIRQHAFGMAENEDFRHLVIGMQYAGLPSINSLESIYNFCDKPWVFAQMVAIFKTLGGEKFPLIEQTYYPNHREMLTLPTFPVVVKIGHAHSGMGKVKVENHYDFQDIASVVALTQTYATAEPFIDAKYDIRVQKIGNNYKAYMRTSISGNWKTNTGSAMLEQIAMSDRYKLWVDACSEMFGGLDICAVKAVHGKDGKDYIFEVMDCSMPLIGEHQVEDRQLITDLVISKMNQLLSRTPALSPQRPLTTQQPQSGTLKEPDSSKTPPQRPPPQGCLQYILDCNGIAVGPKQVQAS
UniProt Q9CPX6: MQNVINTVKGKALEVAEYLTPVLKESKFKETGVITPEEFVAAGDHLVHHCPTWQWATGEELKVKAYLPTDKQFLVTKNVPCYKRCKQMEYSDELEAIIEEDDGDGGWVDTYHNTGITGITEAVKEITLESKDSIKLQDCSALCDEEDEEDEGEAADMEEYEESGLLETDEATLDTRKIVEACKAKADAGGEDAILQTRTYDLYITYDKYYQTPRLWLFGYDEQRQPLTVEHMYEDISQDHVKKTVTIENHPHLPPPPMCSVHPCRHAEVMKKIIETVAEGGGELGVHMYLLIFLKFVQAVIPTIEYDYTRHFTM
UniProt P70365: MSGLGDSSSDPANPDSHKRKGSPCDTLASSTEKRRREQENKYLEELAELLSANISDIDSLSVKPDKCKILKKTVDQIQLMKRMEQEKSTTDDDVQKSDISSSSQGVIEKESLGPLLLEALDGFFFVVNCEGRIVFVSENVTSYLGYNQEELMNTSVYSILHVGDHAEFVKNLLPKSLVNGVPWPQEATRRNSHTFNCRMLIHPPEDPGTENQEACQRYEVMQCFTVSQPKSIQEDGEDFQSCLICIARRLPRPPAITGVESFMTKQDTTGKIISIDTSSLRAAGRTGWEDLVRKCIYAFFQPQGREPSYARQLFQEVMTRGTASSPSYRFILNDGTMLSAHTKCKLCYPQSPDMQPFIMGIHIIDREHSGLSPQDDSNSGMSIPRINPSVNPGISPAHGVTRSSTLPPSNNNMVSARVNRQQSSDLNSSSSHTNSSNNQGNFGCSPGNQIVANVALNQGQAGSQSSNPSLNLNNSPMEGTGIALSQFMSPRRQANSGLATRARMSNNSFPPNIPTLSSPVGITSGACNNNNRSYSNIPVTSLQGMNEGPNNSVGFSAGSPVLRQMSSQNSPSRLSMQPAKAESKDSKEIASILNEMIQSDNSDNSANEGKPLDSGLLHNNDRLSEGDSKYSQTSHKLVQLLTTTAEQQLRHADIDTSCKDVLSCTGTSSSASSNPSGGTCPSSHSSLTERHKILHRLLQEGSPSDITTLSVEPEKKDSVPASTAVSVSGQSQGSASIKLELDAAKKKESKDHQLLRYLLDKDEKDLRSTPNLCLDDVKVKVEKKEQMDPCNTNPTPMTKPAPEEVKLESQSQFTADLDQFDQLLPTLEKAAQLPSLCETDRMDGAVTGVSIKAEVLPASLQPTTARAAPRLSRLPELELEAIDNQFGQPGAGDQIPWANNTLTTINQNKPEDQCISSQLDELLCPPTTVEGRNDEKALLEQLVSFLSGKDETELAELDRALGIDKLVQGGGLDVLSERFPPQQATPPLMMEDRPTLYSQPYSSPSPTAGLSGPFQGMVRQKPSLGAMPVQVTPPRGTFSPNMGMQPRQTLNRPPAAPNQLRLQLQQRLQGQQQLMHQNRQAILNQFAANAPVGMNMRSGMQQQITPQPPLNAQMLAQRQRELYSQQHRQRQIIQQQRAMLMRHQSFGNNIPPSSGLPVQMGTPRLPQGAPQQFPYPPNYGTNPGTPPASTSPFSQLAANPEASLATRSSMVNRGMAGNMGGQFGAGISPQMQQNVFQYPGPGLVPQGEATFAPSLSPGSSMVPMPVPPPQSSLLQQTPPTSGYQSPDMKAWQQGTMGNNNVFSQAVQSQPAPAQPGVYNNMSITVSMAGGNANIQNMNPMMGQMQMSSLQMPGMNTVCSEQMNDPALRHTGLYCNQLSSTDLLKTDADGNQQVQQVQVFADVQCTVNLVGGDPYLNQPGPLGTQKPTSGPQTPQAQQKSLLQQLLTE
UniProt Q9R1E0: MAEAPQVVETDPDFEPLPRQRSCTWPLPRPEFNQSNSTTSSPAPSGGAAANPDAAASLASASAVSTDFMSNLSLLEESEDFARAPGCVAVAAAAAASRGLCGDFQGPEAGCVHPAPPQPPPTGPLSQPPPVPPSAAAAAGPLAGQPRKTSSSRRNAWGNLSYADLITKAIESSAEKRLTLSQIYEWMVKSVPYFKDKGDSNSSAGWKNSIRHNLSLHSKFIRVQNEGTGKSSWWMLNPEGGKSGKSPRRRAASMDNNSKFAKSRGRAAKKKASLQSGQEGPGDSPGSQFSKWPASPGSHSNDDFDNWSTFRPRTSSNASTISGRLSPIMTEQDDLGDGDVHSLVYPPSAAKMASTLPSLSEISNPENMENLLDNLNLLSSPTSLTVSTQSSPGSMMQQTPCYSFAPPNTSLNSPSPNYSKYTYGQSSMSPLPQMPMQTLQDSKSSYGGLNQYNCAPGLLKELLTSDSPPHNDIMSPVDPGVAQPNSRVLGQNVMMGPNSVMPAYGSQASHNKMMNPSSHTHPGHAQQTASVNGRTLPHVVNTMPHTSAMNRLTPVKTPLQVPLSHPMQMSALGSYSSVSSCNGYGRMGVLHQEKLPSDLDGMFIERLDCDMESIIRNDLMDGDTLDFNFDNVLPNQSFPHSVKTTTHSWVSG
UniProt Q9CQY1: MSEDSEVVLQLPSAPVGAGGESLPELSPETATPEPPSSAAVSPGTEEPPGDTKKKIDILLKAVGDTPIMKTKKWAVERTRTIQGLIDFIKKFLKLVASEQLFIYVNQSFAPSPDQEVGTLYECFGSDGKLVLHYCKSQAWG

B1: BCL2 antagonist/killer 1 (protein, UniProt O08734 1-209)
chain: MASGQGPGPPKVGCDESPSPSEQQVAQDTEEVFRSYVFYLHQQEQETQGAAAPANPEMDNLPLEPNSILGQVGRQLALIGDDINRRYDTEFQNLLEQLQPTAGNAYELFTKIASSLFKSGISWGRVVALLGFGYRLALYVYQRGLTGFLGQVTCFLADIILHHYIARWIAQRGGWVAALNFRRDPILTVMVIFGVVLLGQFVVHRFFRS
B2: Cyclin C (protein, UniProt Q62447 1-283)
chain: MAGNFWQSSHYLQWILDKQDLLKERQKDLKFLSEEEYWKLQIFFTNVIQALGEHLKLRQQVIATATVYFKRFYARYSLKSIDPVLMAPTCVFLASKVEEFGVVSNTRLIAATTSVLKTRFSYAFPKEFPYRMNHILECEFYLLELMDCCLIVYHPYRPLLQYVQDMGQEDVLLPLAWRIVNDTYRTDLCLLYPPFMIALACLHVACVVQQKDARQWFAELSVDMEKILEIIRVILKLYEQWKNFDERKEMATILSKMPKPKPPPNSEGEQGPNGSQNSSYSQS

How the values were obtained:
[1] = target: glutathione S-transferase-tagged mouse progestin receptor PR-B (mouse) (UniProt Q00175); assay: pull-down; GST-PRA or GST-PRB bound to R5020, immobilised on glutathione Sepharose 4B, incubated 1 h at 4°C with pooled female mouse hypothalamic homogenate; eluates spotted and read by reverse phase protein array (RPPA) with 212 antibodies, normalised to PR signal; a hit has a ratio R5020/no ligand ≥2 and p < 0.05; only the target purified
[2] = target: glutathione S-transferase-tagged mouse progestin receptor PR-B (mouse) (UniProt Q00175); assay: pull-down; GST-PRA or GST-PRB bound to R5020, immobilised on glutathione Sepharose 4B, incubated 1 h at 4°C with pooled female mouse hypothalamic homogenate; eluted by boiling in Laemmli buffer; Western blot; only the target purified
[3] = target: glutathione S-transferase-tagged mouse progestin receptor PR-B (mouse) (UniProt Q00175); assay: condition: only in the absence of ligand (unliganded GST-PR); pull-down; unliganded GST-PRA or GST-PRB, immobilised on glutathione Sepharose 4B, incubated 1 h at 4°C with pooled female mouse hypothalamic homogenate; eluted by boiling in Laemmli buffer; Western blot; only the target purified

| Molecule | binding [1] | binding [2] | binding [3] |
| --- | --- | --- | --- |
| Epidermal growth factor receptor (from UniProt Q01279 25-1210) | no binding |  |  |
| Integrin-α5 (from UniProt P11688 45-1053) | no binding |  |  |
| synapsin-IIb (from UniProt Q64332-2 1-479) |  | binds |  |
| synapsin-IIa (from UniProt Q64332-1 1-586) |  | binds |  |
| Autophagy-related protein 3 (from UniProt Q9CPX6 1-314) | no binding |  |  |
| Steroid-receptor coactivator-1 (from UniProt P70365 1-1447) | binds | binds | no binding |
| Forkhead box O1 (from UniProt Q9R1E0 1-652) | binds | binds | no binding |
| Autophagy related protein 12 (from UniProt Q9CQY1 1-141) | no binding |  |  |
| B1 | binds |  |  |
| B2 | no binding |  |  |
